Measurements reported in patent EP4538294A1.

Target: BCMA and GPRC5D co-expressed on NCI-H929 cells
Test: FACS, H929 cells

| Substance | EC50 | Maximum mean fluorescence intensity |
| --- | --- | --- |
| JNJ7564 (bispecific antibody) | 34.7, 30.2, 36.4, 20.6, 32.7 nM [one table] | 1480, 1050, 807, 1590, 1710 [one table] |
| REGN5459 (bispecific antibody) | 55.1, 61.7, 50.5, 24, 44.7 nM [one table] | 13800, 19900, 7880, 21100, 9580 [one table] |

A number of entries come with more than one value. The other results are left out here. The source may hold further records. Values that stand side by side seem to repeat one measurement; one of them may be the mean.
